Results taken from the RNAGym collection of RNA variant scans (doi:10.7554/elife.90254).
The source gives no read counts; variants with many changes may rest on few reads.

B1: LINE1-mini (parent)
chain: GGCAGAGCUCAACACAGCGUGGCAAAGUGGCUGUGGCUAGACUGCC

Variants of: B1
Test: self-cleavage, relative activity (ratio to wild type); higher = more cleavage; in vitro, sequencing; the parent is a self-cleaving ribozyme

Variant	self-cleavage
G7U U9A A11U C23U G33U	0.02
C3A C8U U34A G44C	0.18
A4U A11U A12U	0.06
C8G C13U A26C G36U	0.1
A26U G33U G35U	0.04
C15U C18A U28C C31G C37U C45A	0
G2C A14G A24U G33A	0.01
C3A G5C C42A	0.05
C3A A12C U34A U43A	0.03
A6C A12G G21A U38G	0.01
G1U G17U G27A G30C	0.29
G1U A16C G17A C18A G29U G30U C37U	0.04
A4C A11G G17C	0.01
G22A G30C C31G G36C	0.09
U9C C10U C23G G33U G40A	0
G1A G17C A24U G40U C45U	0.03
A25U G30U G35U G36A	0.11
C31A C42A U43A C45U	0.05
G27A G29A U34G G40U A41U U43A G44U	0.01
G5U C10A G29A C45G	0.02
C8U C13G C18A G21C C23U G27U	0.04
G1C G2U G17A G36C	0.01
A6C A24G A25G G29A A41G	2.03
G1C G17C C31A	0.18

Variant	self-cleavage
G1A G17U C46A	0.26
C13G G19U G35U A41G	0.02
G5A C8G G17A	0.03
G1C C10U U32C	0.02
G2U U9C G30U	0.01
G5U A14U G17A C18G C45G	0.04
U9A C10U A24U G30U G44U	0.06
U9A G22C A25G	0.03
G17U G21U A24G	0.02
A6U U9A G17A U34A	0.15
A12G C18A A39U	0
C8A C10A U32G	0.02
G17A A26U C37U	0.02
C3U A24G G36C G40A C45A	0.02
G2U A24G G29C	0.03
U9G A16C G44U C46A	0.05
C3U A14G U28G	0.17
C8G U32C U43C	0.23
C3U C18A U38C	0.06
G2U U9G G22A	0
C3U A6C C8U A25G A26U	0.2
G21A G30C G40C	0.26
A16U G29C G36C	0.11
G17U A25C A39C C45A	0.06

Variant	self-cleavage
G19U U34C A39C C45U	0.09
G17U C23G U28C G29U G30A	0.17
C10A G19C A26C G44A	0.01
G2U G17A G21U A41C	0
G1C C3A A26U G27A C46U	0.32
A16U G17A G19U G33U	0.01
C15U G29A C42G	0.09
G7U A11G C15G	0.01
A16C C42U C46A	0.05
G2U A4C A11G C23A C37A	0.02
G5C A12U A14U G44C	0.07
G2U C10A U20C	0.11
C18U C23U U28C G36C	0.05
G7A G35A U43A	0.07
G2A A4C U9G U28C C46A	0.02
G36U C42G G44U	0.03
C3A C15U G21U A24U G30U	0.4
G5U G7A U38A	0.07
C13A A26U G35U	1.29
G2C C8A G21A U28G	0.22
G30A A41C U43A	0.04
A11U G17C G33U C42G	0
G2C A14C G19A	0
C15G U28A C46A	0.04

Variant	self-cleavage
U9G A41U G44C	0.03
G7A U34C C45G	0.42
A4U G21A A26U G29U	1.15
C8A A11G C18G G21U A25U	0.02
U9G G21A U32C C42G	0
C8U G27U C46A	0.56
C8G U28C C42U	0.01
G1C U32G A39G C46A	0
G2A C23U G29U C31U A39U	0.05
C13A A14U C15A	0.11
A4C A11U C23U U38G G44A	0.01
C10A G19C C37U	0.01
A4C A6U G17C	0.61
C3G G7C U20C G30A C31G	0.01
A4U C23U C46A	0.17
C13U A25U C46U	0.04
G2A G5U G35U	0.38
A16C G17A G19U	0.04
C15G G19U G36A G40A	0.03
A16C G19A A26G G35C	0.02
C3A U28G G30A C42G	0.09
C18U A25C G27C U32A	0.02
G5A G30C G36U C45G	1.03
A14G A26U G27U U28A G29U C31A	0.16

Variant	self-cleavage
U9G A11G C13A G44U	0.04
G17A G40U C45A	0
G17C A24U A26C G33A A41C	0.06
C15U G17U G22A C23A C42A	0.26
G7U C13U G30C	0.11
G7U G21C G30U G35C G44A	0.02
A6G C15G G22U G27U U28G	0
G27A U28A C31U	0.26
A14U G19C G27A C46G	0.36
G5U C15A C46A	0.05
C10A G36U U43C C45U	0.01
A4U G21U G30U C31A	0.15
G22A G35U C46G	0.39
G5A U20C C42A	0.85
G19A G29U C42U	0.37
G22U G27U G33U	0.06
A12G G19U G29C C31U G40U	0.02
A12G G17U G19A U20C C37U G40C	0.05
A24U A39G C46G	0.03
G2U A14U C15A	0.31
G17C G35A G36A	0.08
G1A A16U G17C G44A	0.28
A4G G5A G30U	0.07
G22A C23A G40A	0.06

Variant	self-cleavage
C8U A11U C13A	0.02
G2U G22U G29U G30U U32G G44U	0.03
G1U C8A A11U G21U	0.02
C10U A16G G19U A25C U38A C42A	0
G5A C15G G35C G44C C46U	0.04
U9C C18A G29U	0.02
C10A U28A C42G	0.02
G17U G30U A39U	0.07
C23A G29U C42G	0.03
A11C C23A A41U C46U	0.03
G5C G19A G22A	0.08
C10U C13A G30U U43G G44A	0.01
U20G A41C C46A	0
C10A C31A C37U	0.01
G5U G27U U28G G40C	0.03
G2U A6U U28A C46U	0.31
A12C C18A C42G	0.03
C10U C18G A26G G30A	0.33
A4U U9G C15A G36U	0.03
C8A C13U A16G	0.11
G5A C10G G33U	0.04
A12C U34A G40U C46A	0
G2U G19C U32A A41U	0.03
A6G U32A A41U	0.05

Variant	self-cleavage
G19A A24U A39U	0.78
A4U A6G U20G	0
C13U A25C C42G	0.04
G1U C3A C10A	0.09
A11U U28G G36U A41U	0
A4C C15A A16U U20C G33A	0.02
G7C C10A G17C A39G	0.01
G7C U9A G35A	0.06
U28C G40U C42G	0.26
A12U C13G U20G	0.03
G1A C13U A25U U32A C42G	0.07
C10G A11G C42U	0.08
A16C U20A A24G G33A U38A	0.01
G5C A6C G19C G22C U34C	0.1
G19C A26C G27A	0.12
U20G A25G C37A	0.02
A4U U34A C37A	0.02
G5U G7C G27A C42A	0.14
G30A G36C U38A	0.13
A6G U9A G17C C31A G36U	0.02
C10G U28C C42G	0.01
A24G U28C C45U	2.3
G29A C31G G36A G40U G44C	0.05
